# In PubChem BioAssay (NCATS):
# The shares of active, inactive and inconclusive entries below differ from those in the screen. For some of these results: No potency is given beside an inconclusive call; the fits are too rough. Calls of active or inactive are those of the source. Unless noted, the call rests on the fitted dose curve; in most records, active means well fitted curve in the direction sought with a large enough effect; inconclusive means small, poorly fitted or top-dose-only effect, or another doubt; inactive means no such curve, though single readings can be large; an effect the other way counts as inactive or inconclusive.
# Assays:
# [1] = test system: Zika virus NS2B-NS3 protease (linked construct); assay: Primary screen NINDS Rhodamine qHTS for Zika virus inhibitors (AID 1347160); further: potency means the concentration at half of the fitted maximal effect; nearly all actives have a fitted effect of over 55% in size
# Summary of the method: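 Purified NS2B-NS3 protease with the NS2B hydrophilic domain joined by a flexible linker (25 nM) in 10 mM Tris-HCl pH 8.0, 0.01% Tween 20, preincubated 15 min at RT with compound; Rhodamine110 peptide substrate 1.5 µM; fluorescence change over 15 min; 4-parameter Hill fit.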
# [2] = HPAF-II Cancer Cell Toxicity qHTS against the NCATS CANVASS Library (AID 1347346); further: potency means the concentration at half of the fitted maximal effect; nearly all actives have a fitted effect of over 55% in size
# Summary of the method: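 Luminescence from CellTiter-Glo, added after 72 h compound exposure and a 15 min room-temperature incubation, served as the viability readout. HPAF-II cells (1000/well) received an 11-point concentration series.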
# [3] = UWB1.289 Cancer Cell Toxicity qHTS against the NCATS CANVASS Library (AID 1347347); further: potency means the concentration at half of the fitted maximal effect; nearly all actives have a fitted effect of over 60% in size
# Summary of the method: (§1)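 ATP content after 72 h treatment, detected by CellTiter-Glo luminescence (15min room-temperature development), reflects cell viability. Wells contained 1000 cells and received compounds at 11 concentrations.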
# [4] = HPAF-II 12hr Apoptosis Induction qHTS against the NCATS CANVASS Library (AID 1347358); further: potency means the concentration at half of the fitted maximal effect
# Summary of the method: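 500 HPAF-II cells/well; cmpds 11-pt; 12 hr, 37 degrees C/5% CO2; Caspase-Glo 3/7 added, 15 min RT dark; luminescence read. Doxorubicin titration as control.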
# [5] = KB-3-1 Cancer Cell Toxicity qHTS against the NCATS CANVASS Library (AID 1347366); further: nearly all actives have a fitted effect of over 75% in size; further: potency means the concentration at half of the fitted maximal effect
# Summary of the method: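 KB-3-1 cells (500/well) in DMEM with 10% FBS were exposed to compounds for 72 h at 37C. Viability was read by CellTiter-Glo luminescence.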
# [6] = qHTS for ATAD5 Agonist screened against the NCATS CANVASS Library (AID 1347367);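 further: luciferase reporter driven by ATAD5 which rises upon DNA damage; 0% is about no effect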
# Summary of the method: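 Luciferase reporter under ATAD5 control, stably integrated in HEK293T cells (2000/well). Compounds (11 points) incubated 16 h at 37C; viability read first by CellTiter-Fluor, then luminescence reporting ATAD5 activation. MMS positive control.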
# [7] = molecular target: Nuclear receptor subfamily 1 group I member 3 (Homo sapiens) (UniProt Q14994); assay: qHTS for Constitutive Androstane Receptor (CAR) Antagonist screened against the NCATS CANVASS Library (AID 1347372); further: potency means the concentration at half of the fitted maximal effect;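 on activity change, negative = inhibition: cells stimulated with 50 nM CITCO agonist so inhibition reflects antagonism; on the % scale 0 is the no-effect control and ±100 the full control effect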
# UniProt Q14994, sequence (Q14994 whole entry, looked up): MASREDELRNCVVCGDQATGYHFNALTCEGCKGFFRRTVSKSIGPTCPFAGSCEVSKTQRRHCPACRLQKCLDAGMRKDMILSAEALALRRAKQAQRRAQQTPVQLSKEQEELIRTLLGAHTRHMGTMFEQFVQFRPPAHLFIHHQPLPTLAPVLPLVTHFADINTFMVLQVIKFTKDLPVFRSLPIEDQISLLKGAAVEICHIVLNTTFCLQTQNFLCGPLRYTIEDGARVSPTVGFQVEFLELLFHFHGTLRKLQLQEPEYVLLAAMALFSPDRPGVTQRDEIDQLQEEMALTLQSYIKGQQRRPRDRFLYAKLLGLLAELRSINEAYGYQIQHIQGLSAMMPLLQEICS
# Summary of the method: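 HepG2 cells stably carrying hCAR and a CYP2B6-2.2kb luciferase reporter were exposed to compounds plus 50 nM CITCO for 24hr at 37C. CAR activity was read by ONE-Glo luminescence, with viability measured first by CellTiter-Fluor.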
# [8] = qHTS for inhibitors of ER calcium dysfunction: SERCaMP assay screened against the NCATS CANVASS Library (AID 1347393); conditions: SH-SY5Y GLuc-SERCaMP (Gaussia luciferase released on ER calcium loss) secretion, thapsigargin, luminescence; activity change, negative = inhibition: at 76.6 µM (top of the series); further: potency means the concentration at half of the fitted maximal effect; nearly all actives have a fitted effect of over 40% in size
# Summary of the method: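 qHTS in SH-SY5Y reporter cells: 16 h compound pretreatment, 4 h thapsigargin, then secreted Gaussia luciferase measured by luminescence.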
# [9] = qHTS Assay for Lipid Storage Modulators (AID 1519; calls by dose curve; further: on the % scale 0 is the no-effect control and ±100 the full control effect); conditions: Drosophila S3 cells, BODIPY lipid droplet/cell ratio, laser cytometry, cells loaded with oleic acid; activity change, negative = inhibition: at 57.5 µM (top of the series) unless noted
# Summary of the method: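 Cells seeded at 5,000 per well were treated with compounds over a concentration series and loaded with oleic acid (400 uM, as added). Lipid droplet fluorescence (488 nm excitation, 500-530 nm channel) was read by laser-scanning cytometry and normalized to 20 uM Triacsin C.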
# [10] = molecular target: Tyrosyl-DNA phosphodiesterase 1 (Homo sapiens) (UniProt Q9NUW8); assay: Confirmation Assay for Inhibitors of Tyrosyl-DNA Phosphodiesterase (TDP1) (AID 489007); conditions: recombinant human TDP1 enzymatic activity, dose-response; further: potency means the concentration at half of the fitted maximal effect; nearly all actives have a fitted effect of over 40% in size
# UniProt Q9NUW8, sequence (Q9NUW8 whole entry, looked up): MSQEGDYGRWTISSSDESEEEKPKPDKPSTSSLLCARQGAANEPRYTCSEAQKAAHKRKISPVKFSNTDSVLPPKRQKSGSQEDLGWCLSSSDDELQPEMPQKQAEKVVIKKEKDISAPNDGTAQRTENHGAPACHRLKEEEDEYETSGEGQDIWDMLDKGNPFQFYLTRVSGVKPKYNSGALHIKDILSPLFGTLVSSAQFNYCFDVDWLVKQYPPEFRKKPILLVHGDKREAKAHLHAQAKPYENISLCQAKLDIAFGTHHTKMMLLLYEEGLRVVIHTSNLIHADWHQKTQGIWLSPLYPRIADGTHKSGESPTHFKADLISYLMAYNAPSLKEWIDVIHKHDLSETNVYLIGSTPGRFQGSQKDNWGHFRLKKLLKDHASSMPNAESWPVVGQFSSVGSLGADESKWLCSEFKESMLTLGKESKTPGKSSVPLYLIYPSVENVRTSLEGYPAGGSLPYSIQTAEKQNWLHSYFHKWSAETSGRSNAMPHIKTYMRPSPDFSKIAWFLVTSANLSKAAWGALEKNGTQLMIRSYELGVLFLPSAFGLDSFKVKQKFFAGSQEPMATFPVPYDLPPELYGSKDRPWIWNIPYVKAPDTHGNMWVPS
# Summary of the method: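 Tdp1 1 nM + cpd, 15 min RT; add biotin/phosphotyrosine-FITC oligo 15 nM, 5 min RT; add AS donor/acceptor beads 10 ug/ml, 10 min RT; read AlphaScreen. No-enzyme wells = max signal.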
# [11] = molecular target: Ubiquitin carboxyl-terminal hydrolase 1 (Homo sapiens) (UniProt O94782); assay: Inhibitors of USP1/UAF1: Pilot qHTS (AID 504865);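 further: rhodamine fluorescence freed from ubiquitin-rhodamine substrate followed over time; potency means the concentration at half of the fitted maximal effect; nearly all actives have a fitted effect of over 35% in size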
# UniProt O94782, sequence (O94782 whole entry, looked up): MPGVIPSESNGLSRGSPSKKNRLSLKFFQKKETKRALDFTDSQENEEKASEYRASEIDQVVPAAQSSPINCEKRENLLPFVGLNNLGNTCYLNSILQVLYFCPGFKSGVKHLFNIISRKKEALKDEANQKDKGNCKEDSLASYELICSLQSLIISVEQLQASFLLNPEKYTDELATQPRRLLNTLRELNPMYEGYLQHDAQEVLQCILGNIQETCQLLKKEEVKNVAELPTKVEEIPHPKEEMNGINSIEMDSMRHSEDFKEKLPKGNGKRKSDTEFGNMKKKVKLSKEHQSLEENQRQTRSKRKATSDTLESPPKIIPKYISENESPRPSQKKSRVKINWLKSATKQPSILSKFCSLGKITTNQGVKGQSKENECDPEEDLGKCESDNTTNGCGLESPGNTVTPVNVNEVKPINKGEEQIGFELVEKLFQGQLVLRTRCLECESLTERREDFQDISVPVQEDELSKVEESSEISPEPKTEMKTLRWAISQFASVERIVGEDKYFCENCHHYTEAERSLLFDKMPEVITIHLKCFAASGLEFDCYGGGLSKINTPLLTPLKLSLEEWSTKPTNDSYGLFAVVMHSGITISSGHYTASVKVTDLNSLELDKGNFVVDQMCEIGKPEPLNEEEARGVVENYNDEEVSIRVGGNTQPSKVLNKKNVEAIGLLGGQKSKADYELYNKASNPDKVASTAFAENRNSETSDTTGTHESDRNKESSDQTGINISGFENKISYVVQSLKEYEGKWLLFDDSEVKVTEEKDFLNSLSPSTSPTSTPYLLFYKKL
# Summary of the method: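 USP1/UAF1 complex at 1 nM preincubated 15 min at room temperature with compound, then Ub-Rho substrate added at 150 nM final. Fluorescence (480/540 nm) read kinetically in 50 mM HEPES pH 7.8, 0.5 mM EDTA, 1 mM TCEP, 0.1 mg/ml BSA, 0.01% Tween-20.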
# [12] = test system: Zika virus NS2B-NS3 protease (linked construct); assay: 384 well plate NINDS Rhodamine confirmatory qHTS for Zika virus inhibitors (AID 1347164);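 further: fluorescence from protease cleavage of Ac-LKRR-rhodamine 110 substrate; potency means the concentration at half of the fitted maximal effect; nearly all actives have a fitted effect of over 65% in size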
# Summary of the method: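 Linked NS2B-NS3 protease (final 5, 30 or 60 nM) preincubated ~15 minutes with compounds, then 10 microM Ac-LKRR-Rhodamine 110 added. Fluorescence (485/538 nm) read after 25 minutes at room temperature, normalized to no-enzyme and no-inhibitor controls.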
# [13] = OV-KATE Cancer Cell Toxicity qHTS against the NCATS CANVASS Library (AID 1347345); further: potency means the concentration at half of the fitted maximal effect
# Summary of the method: as §1
# [14] = Panc-1005 Cancer Cell Toxicity qHTS against the NCATS CANVASS Library (AID 1347349); further: potency means the concentration at half of the fitted maximal effect; nearly all actives have a fitted effect of over 60% in size
# Summary of the method: as §1
# [15] = U-118MG Cancer Cell Toxicity qHTS against the NCATS CANVASS Library (AID 1347351); further: potency means the concentration at half of the fitted maximal effect
# Summary of the method: as §1
# [16] = UWB1.289-WTBRCA1 Cancer Cell Toxicity qHTS against the NCATS CANVASS Library (AID 1347354); further: potency means the concentration at half of the fitted maximal effect
# Summary of the method: (§2)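 Luminescent ATP read-out (CellTiter-Glo, 15min at room temperature) measures survival after cells face an 11-point compound series for 72 hours at 37 degrees C/5% CO2.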
# [17] = HEK-293 Cancer Cell Toxicity qHTS against the NCATS CANVASS Library (AID 1347355); further: potency means the concentration at half of the fitted maximal effect; nearly all actives have a fitted effect of over 65% in size
# Summary of the method: as §2
# [18] = HPAF-II 24hr Apoptosis Induction qHTS against the NCATS CANVASS Library (AID 1347356); conditions: HPAF-II caspase-3/7 Caspase-Glo luminescence; further: potency means the concentration at half of the fitted maximal effect
# Summary of the method: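 Luminescent caspase-3/7 signal (DEVD substrate, Caspase-Glo) served as read-out, taken 15 min after reagent addition to HPAF-II cells exposed 24 h to compounds.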
# [19] = HPAF-II 18hr Apoptosis Induction qHTS against the NCATS CANVASS Library (AID 1347360); further: potency means the concentration at half of the fitted maximal effect
# Summary of the method: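 HPAF-II cells at 500/well were exposed for 18 h at 37 C to an 11-point compound series. Caspase-3/7 activity was read by Caspase-Glo luminescence after 15 min at RT.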
# [20] = KB-8-5-11 Cancer Cell Toxicity qHTS against the NCATS CANVASS Library (AID 1347364); further: potency means the concentration at half of the fitted maximal effect; nearly all actives have a fitted effect of over 75% in size
# Summary of the method: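 Plate 500 KB-8-5-11 cells per well in DMEM + 10% FBS, add compounds by pin transfer, incubate 72 hr at 37C. Add CellTiter-Glo, wait 10 minutes at room temperature, read luminescence.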
# [21] = G06 Cancer Cell Toxicity qHTS against the NCATS CANVASS Library (AID 1347368); further: potency means the concentration at half of the fitted maximal effect; nearly all actives have a fitted effect of over 60% in size
# Summary of the method: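 Dog G06 glioma line, 500 cells/well; cpds pin-transferred, 11-pt; 72 hr, 37C/5% CO2; CellTiterGlo luminescence (ATP) endpoint.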
# [22] = MCF7 Cancer Cell Toxicity qHTS against the NCATS CANVASS Library (AID 1347369); further: potency means the concentration at half of the fitted maximal effect
# Summary of the method: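 MCF7 cells (500/well) were exposed 72 h at 37 °C to compounds in an 11-point series. Viability was read as ATP content by CellTiterGlo luminescence.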
# [23] = qHTS for Hypoxia signaling pathway (HIF-1) antagonists against the NCATS CANVASS Library (AID 1347374); further: potency means the concentration at half of the fitted maximal effect; nearly all actives have a fitted effect of over 60% in size
# Summary of the method: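 HRE-bla ME-180 cells in medium with 0.5% dialyzed FBS received compounds (11-point series) plus CoCl2 (60 uM addition stock) for 17 hrs at 37C. Beta-lactamase activity read with CCF4 (405 nm ex, 460/530 nm em); CellTiter-Glo viability measured in same wells.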
# [24] = qHTS for Hypoxia signaling pathway (HIF-1) agonists against the NCATS CANVASS Library (AID 1347375); further: potency means the concentration at half of the fitted maximal effect
# Summary of the method: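 ME-180 HRE-bla reporter cells; 2,000/well, 0.5% dialyzed FBS; cpd added after 5 h, 17 h 37C/5% CO2; CCF4-AM 2 h RT; FRET 460/530 nm; CellTiter-Glo viability same wells, 30 min.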
# [25] = qHTS for H2AX Agonists against the NCATS CANVASS Library (AID 1347378); further: potency means the concentration at half of the fitted maximal effect
# Summary of the method: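 CHO-K1 cells (1000/well, overnight at 37C) exposed to compounds at several concentrations for 3 hr at 37C, 0.76% DMSO final. Lysates read by TR-FRET (phospho-H2AX S139 Eu-cryptate antibody / H2AX-d2 antibody) after 24 hr at room temperature; 665/615 nm ratio.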
# [26] = Cytotoxicity qHTS for assessment of Hepg2 cells membrane integrity screened against the NCATS CANVASS Library (AID 1347387); further: potency means the concentration at half of the fitted maximal effect
# Summary of the method: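 qHTS, 11-pt conc. series, 0.59 nM - 46 uM final; HepG2 2000 cells/well, overnight attachment; 5 hr compound exposure 37C/5% CO2; CytoTox-ONE, 10 min RT; fluorescence ex560/em590 = LDH from damaged membranes.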
# [27] = qHTS for Activators of p53 Stress Response Pathway screened against the NCATS CANVASS Library (AID 1347388); further: potency means the concentration at half of the fitted maximal effect
# Summary of the method: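 p53RE-bla HCT-116 cells (4000/well) were plated 5 h at 37C, exposed to compounds for 16 h at 37C over an 11-point concentration series, then loaded with CCF4 for 2 h at room temperature; 460/530 nm emission ratio read.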
# [28] = qHTS assay for small molecule disruptors of mitochondrial membrane potential screened against the NCATS CANVASS Library (AID 1347389)
# Summary of the method: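 HepG2, 2,000 cells/well, attached overnight; compound 1 hr, 37C, 5% CO2; Mito-MPS dye 30 min, 37C; fluorescence 535 nm (monomer) and 590 nm (aggregate); decreased 590/535 ratio = depolarization.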
# [29] = Secretion counterscreen for inhibitors of the SERCaMP assay screened against the NCATS CANVASS Library (AID 1347390)
# Summary of the method: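 SH-SY5Y cells with constitutively secreted GLuc reporter, 1000 cells/well, treated 20 h at 37C with compounds at 0.001 - 77 uM final; secreted luciferase read as luminescence after coelenterazine; Brefeldin A as positive control.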
# [30] = qHTS for activators of dead-cell proteases activity screened against the NCATS CANVASS Library (AID 1347392);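 further: luminescence from protease leaking out of membrane-damaged cells cleaving impermeant substrate; potency means the concentration at half of the fitted maximal effect; rising signal means more cytotoxicity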
# Summary of the method: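 HepG2 cells (2000/well) attached 18 h at 37C, then exposed 5 h to compounds (11-point qHTS). Dead-cell protease activity read as luminescence from cell-impermeant AAF-aminoluciferin substrate after 15 min at room temperature.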
# [31] = qHTS for inhibitors of Wild type Zika virus screened against the NCATS CANVASS Library (AID 1347396); further: potency means the concentration at half of the fitted maximal effect
# Summary of the method: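 Vero 766 (African green monkey) cells, 1000 per well, attached overnight, then compounds were added in an 11-point series before wild-type Zika virus infection. After 72 h at 37C, cell viability was read as CellTiter Glo luminescence.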
# [32] = Redox Reaction Profiling qHTS: Assay Interference Panel against the NCATS CANVASS Library (AID 1347401); further: potency means the concentration at half of the fitted maximal effect
# Summary of the method: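 Resazurin (5 uM) conversion to resorufin measured with 200 uM DTT in 50 mM HEPES pH 7.3, 50 mM NaCl. Compounds tested in 11-point qHTS series. Fluorescence (ex 525/em 598 nm) read before and after 15 min dark incubation.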
# [33] = qHTS for inhibitors of Rabies Virus screened against the NCATS CANVASS Library (AID 1347402; calls by dose curve; further: potency means the concentration at half of the fitted maximal effect)
# Tags describe the fitted curve by direction and shape.
compound,measurement,setting,value
CCCC[C@@H](C)/C=C1/CN2CCC[C@H]2[C@@](C)(O)[C@@H]1O,Potency,[1],"inconclusive [inhibitor, partial curve, poor fit]"
same,Potency,[2],"inconclusive [cytotoxic, partial curve, poor fit]"
same,Potency,[3],"inconclusive [cytotoxic, partial curve]"
same,Potency,[4],inactive
same,Potency,[5],inactive
same,Potency,[6],inactive
same,Potency,[7],inactive
same,Potency,[8],"inconclusive [inhibitor, single point]"
CN(C)C1C(=O)C(C(N)=O)=C(O)[C@@]2(O)C(=O)C3=C(O)c4c(O)ccc(Cl)c4[C@](C)(O)C3CC12 (some centres not stated),"activity change, negative = inhibition",[9],inconclusive: 16.4%
same,Potency,[10],"inconclusive [inhibitor, full curve]"
same,Potency,[11],"inconclusive [inhibitor, partial curve, poor fit]"
same,Potency,[12],"inconclusive [inhibitor, partial curve, poor fit]"
C=C(C)[C@H]1C(=O)c2c3c(cc4c5c(n1c24)[C@@]1(C)[C@@H](CC[C@H]2[C@](C)(/C=C/C=C(\C)C(=O)O)[C@@H](O)CC[C@@]21C)C5)C1=CC(C)(C)OC(C)(C)[C@H]1[C@@H]3O,Potency,[1],active: 2.2 µM
same,Potency,[13],"inconclusive [cytotoxic, single point]"
same,Potency,[14],active: 8.41 µM
same,Potency,[15],active: 18.8 µM
same,Potency,[16],active: 18.8 µM
same,Potency,[17],"inconclusive [cytotoxic, single point]"
same,Potency,[18],"inconclusive [activator, single point]"
same,Potency,[4],"inconclusive [activator, single point]"
same,Potency,[19],"inconclusive [activator, partial curve, poor fit]"
same,Potency,[20],"inconclusive [cytotoxic, full curve, poor fit]"
same,Potency,[5],active: 16.6 µM
same,Potency,[21],"inconclusive [cytotoxic, single point]"
same,Potency,[22],"inconclusive [cytotoxic, partial curve, poor fit]"
same,Potency,[7],"inconclusive [inhibitor, single point]"
same,Potency,[23],active: 6.66 µM
same,Potency,[24],"inconclusive [activator, full curve]"
same,Potency,[25],active: 13.7 µM
same,Potency,[26],"inconclusive [rising, single point]"
same,Potency,[27],"inconclusive [activator, full curve, poor fit]"
same,Potency,[28],active: 16.6 µM
same,Potency,[29],"inconclusive [inhibitor, single point]"
same,Potency,[30],"inconclusive [activator, single point]"
same,Potency,[31],"inconclusive [inhibitor, full curve]"
same,Potency,[32],active: 19.2 µM
same,Potency,[33],"inconclusive [inhibitor, full curve]"
